Measurements taken from PubChem BioAssay (EPA / NIEHS).
Several values for one entry are separate records, joined by “and”; a condition that tells them apart may be missing. Identical values can stand only once. The inconclusive results got no clear call from the source; some entries with a clear call stand among them for comparison. Potencies of inconclusive entries are doubtful fits and often do not repeat. Activity calls are given as the source filed them. Rule for the calls: active = hit-call score of the fitted dose curve at least 0.9, where 1 is the maximum; inconclusive = response in the unintended direction; inactive = score below 0.9.

These compounds were tested on frog Androgen Receptor (AR), gene 399456 (assay: ATG_frAR_XSP2: Attagene TRANS-FACTORIAL Multi-Species (XSP2) HepG2 Assay for frog Androgen Receptor (AR) (AID 2283824);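 note: reporter mRNA from GAL4-UAS units driven by Xenopus AR-Gal4 chimera; actives raise reporter signal above DMSO so AC50 reflects agonist-like induction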).
Description: ATG_XSP2_multi-species_TRANS is a cell-based, multiplexed assay created by modifying the existing Attagene TRANS-FACTORIAL system to include a panel of nuclear receptors from some or all the following species: human (Homo sapiens), mouse (Mus musculus), frog (Xenopus laevis), zebrafish (Danio rerio), chicken (Gallus gallus), and turtle (Chrysemys picta). The ECOTOX-FACTORIAL format uses HepG2, a human liver cell line, with measurements taken at 24 hours after chemical dosing in a 24-well plate. Xsp2 included 3 nM 6-alpha-fluorotestosterone and 1.5 nM norgestrel to stimulate the androgen receptor.ATG_frAR_XSP2 is one of 29 assay components measured or calculated from the ATG_XSP2_multi-species_TRANS assay. It is designed to make measurements of mRNA induction, a form of inducible reporter, as detected with fluorescence intensity signals by Reverse transcription polymerase chain reaction (RT-PCR) and Capillary electrophoresis technology.The assay endpoint ATG_frAR_XSP2 was analyzed in the positive analysis fitting direction relative to DMSO as the negative control and baseline of activity. Using a type of inducible reporter, measures of mRNA for gain-of-signal activity can be used to understand the reporter gene at the transcription factor-level as they relate to the gene AR. Furthermore, this assay endpoint can be referred to as a primary readout, because this assay has produced multiple assay endpoints where this one serves a reporter gene function. To generalize the intended target to other relatable targets, this assay endpoint is annotated to the nuclear receptor intended target family, where the subfamily is steroidal.
Human liver HepG2 cells are transiently transfected with multiple reporter transcription units (MRTUs) in 6-well plates using FuGene 6 reagent (Roche; 3 ml FuGene/1 mg DNA). The MRTU constructs are regulated by a cis-regulating element (promoter). […] A major difference between the CIS and TRANS system is that in CIS activities of endogenous TFs are measured, whereas the TRANS assay evaluates changes in activities of exogenous, chimeric NR-Gal4 proteins. […] At the end of 24 hour incubation, total RNA was isolated using TriZol reagent (Invitrogen). The isolated RNA is then reverse-transcribed using oligo(dT) primer and Mo-MLV reverse transcriptase (Invitrogen) with DNAse I (Ambion) treatment for 30 min. The one-tenth of the produced cDNA was amplified by PCR using Taq DNA polymerase (Invitrogen) and two reporter sequence-specific primers. The PCR products were fluorescently labeled by primer extension with 6-arboxyfluorescein (6-FAM) 5'-labeled reporter sequence-specific primer (2 min at 95 C, 20 s at 68 C and 10 min at 72 C) and these products were digested with 5U of HpaI (New England Biolabs) for 2h at 37 C. The fragments were purified using Qiaquick PCR columns (Qiagen), analyzed on an ABI 3130xL genetic analyzer (Applied Biosystems) with peak positions identified by using a set of X-rhodamine (ROX)-labeled MapMarker1000 molecular weight standards (BioVentures). The raw capillary electrophoresis data was processed using Attagraph software (Attagene).
For `CN(C)C(=N)N=C(N)N`, the AC50 was inconclusive: 182 µM. With `CC(=O)[C@@]1(O)CC[C@H]2[C@@H]3CCC4=CC(=O)CC[C@]4(C)[C@H]3CC[C@@]21C` the AC50 was inconclusive: 265 nM and inconclusive: 590 nM. For `Oc1ccc(C(c2ccc(O)cc2)C(Cl)(Cl)Cl)cc1`, the AC50 was inconclusive: 4.4 µM. `C[C@]12CC[C@@H]3c4ccc(O)cc4CC[C@H]3[C@@H]1CCC2=O` was tested, and the AC50 was inconclusive: 0.1 µM. In the case of `C[C@]12CC[C@@H]3c4ccc(O)cc4CC[C@H]3[C@@H]1C[C@@H](O)[C@@H]2O`, the AC50 is reported as inconclusive: 0.1 µM. In the case of `CC(C)(c1cc(Br)c(O)c(Br)c1)c1cc(Br)c(O)c(Br)c1`, the AC50 is reported as inconclusive: 9.5 µM. In the case of `c1ccc2c(c1)ccc1ccccc12`, the AC50 is reported as inconclusive: 15.6 µM. With `CN(CCOc1ccc(CC2SC(=O)NC2=O)cc1)c1ccccn1` (configuration not stated) the AC50 was inconclusive: 0.1 µM. `O=C(Oc1ccccc1)c1ccc(O)cc1` was tested, and the outcome was “inactive” and the AC50 was inconclusive: 176 µM. For `CC(C)(C)c1ccc(S)cc1`, the AC50 was inconclusive: 179 µM and inconclusive: 183 µM. In the case of `Cc1oc(-c2ccccc2)nc1CCOc1ccc(C[C@H](Nc2ccccc2C(=O)c2ccccc2)C(=O)O)cc1`, the AC50 is reported as inconclusive: 0.09 µM. In the case of `BrCc1cccc(Oc2ccccc2)c1`, the AC50 is reported as inconclusive: 85.3 µM and inconclusive: 66.4 µM. `CCCCC(CC)COC(=O)c1ccc(O)cc1` (configuration not stated) was tested, and the AC50 was inconclusive: 33.4 µM. In the case of `Cc1cc(O)cc(C)c1Cl`, the AC50 is reported as inconclusive: 27.8 µM and inconclusive: 43.3 µM. In the case of `CCCCC(CC)COC(=O)c1ccccc1C(=O)O` (configuration not stated), the AC50 is reported as inconclusive: 102 µM. With `O=c1c(-c2ccc(O)cc2)coc2cc(O)cc(O)c12` the AC50 was inconclusive: 1.65 µM and inconclusive: 1 µM. `CC/C(=C(\c1ccccc1)c1ccc(OCCN(C)C)cc1)c1ccccc1` was tested, and the AC50 was inconclusive: 5.55 µM. For `Oc1ccc2cc(SSc3ccc4cc(O)ccc4c3)ccc2c1`, the AC50 was active: 26.3 µM and inconclusive: 175 µM. With `CC/C(=C(/CC)c1ccc(O)cc1)c1ccc(O)cc1` the AC50 was inconclusive: 0.0198 µM. `C#C[C@]1(O)CC[C@H]2[C@@H]3CCc4cc(O)ccc4[C@H]3CC[C@@]21C` was tested, and the AC50 was inconclusive: 0.0109 µM. In the case of `CC(=O)O[C@]1(C(C)=O)CC[C@H]2[C@@H]3C=C(Cl)C4=CC(=O)[C@@H]5C[C@@H]5[C@]4(C)[C@H]3CC[C@@]21C`, the AC50 is reported as inconclusive: 0.0856 µM.
